Hit rate of the full screen: of about 5,400 compounds, about 190 (3.5%) showed an effect of 50% or more. Some of the results follow.
Tested on: Vero-E6
Test: primary screen, phospholipidosis by LipidTOX staining; higher = more effect of the substance
Conditions: 10 µM
Outline: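 Single-concentration screen at 10 μM, with DMSO 0.1 v/v % and amiodarone 10 μM as controls. Read-out is LipidTOX Red phospholipid staining, which tolerates aldehyde fixation, in Vero-E6 cells.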

Compound | result_ITMP
CC(C)c1ccc(NC(=O)c2cccs2)c(-c2nc3ccccc3[nH]c2=O)c1 | 0.78%
CCCCCCCCCCCCCC(=O)OC(C)C | -2.19%
CC(COc1ccccc1Cc1ccccc1)N1CCCCC1 (stereo not shown) | 72%
CNCC(O)c1ccc(O)cc1 (stereo not shown) | -3.91%
C=CCNc1c(O)cc2c(O)c1C[C@@H](C)C[C@H](OC)[C@H](O)[C@@H](C)/C=C(\C)[C@H](OC(N)=O)[C@@H](OC)/C=C\C=C(/C)C(=O)N2 | -1.56%
CC(C)NCC(O)c1ccc(N)c(C#N)c1 (stereo not shown) | -4.02%
C=C[C@@H]1C[C@]1(NC(=O)[C@@H]1C[C@@H]2CN1C(=O)[C@H](C(C)(C)C)NC(=O)O[C@@H]1C[C@H]1CCCCCc1nc3ccc(OC)cc3nc1O2)C(=O)NS(=O)(=O)C1CC1 | 0.35%
CC1(C)S[C@@H]2C(N3C(=O)[C@@H](c4ccccc4)NC3(C)C)C(=O)N2[C@H]1C(=O)[O-] (stereo partly shown) | -1.52%
CC(C)C[C@H](NC(=O)CNC(=O)[C@H](Cc1ccc(O)cc1)NC(=O)[C@H](CO)NC(=O)[C@H](Cc1c[nH]c2ccccc12)NC(=O)[C@H](Cc1c[nH]cn1)NC(=O)[C@@H]1CCC(=O)N1)C(=O)N[C@@H](CCCNC(=N)N)C(=O)N1CCC[C@H]1C(=O)NCC(N)=O | 1.23%
C[C@]1(COc2ccc(N3CCC(Oc4ccc(OC(F)(F)F)cc4)CC3)cc2)Cn2cc([N+](=O)[O-])nc2O1 | -2.16%
COc1ccc(NC(=O)c2ccc(-c3ccc(-c4noc(C)n4)cc3C)cc2)cc1N1CCN(C)CC1 | 142%
CNC(C)CC1CCCCC1 (stereo not shown) | 6.1%
Cc1cnc(Nc2ccc(F)cc2Cl)nc1-c1c[nH]c(C(=O)N[C@H](CO)c2cccc(Cl)c2)c1 | 37.4%
NC(=O)C1=CN([C@@H]2O[C@H](COP(=O)(O)OP(=O)(O)OC[C@H]3O[C@@H](n4cnc5c(N)ncnc54)[C@H](OP(=O)(O)O)[C@@H]3O)[C@@H](O)[C@H]2O)C=CC1 | -3.53%
CCCCNc1ccc(C(=O)OCCN(C)C)cc1 | 6.48%
CC(C)=CCC/C(C)=C/CC/C(C)=C/CSc1ccccc1C(=O)O | -2.01%
CO/N=C(\C(=O)N[C@@H]1C(=O)N2C(C(=O)[O-])=C(COC(N)=O)CS[C@H]12)c1ccco1 | -1.04%
CCCCCOC(=O)Nc1nc(=O)n([C@@H]2O[C@H](C)[C@@H](O)[C@H]2O)cc1F | 1.25%
CN[C@@H]1C(OC2[C@H](O[C@H]3[C@H](O)[C@@H](O)[C@H](NC(=N)N)[C@@H](O)[C@@H]3NC(=N)N)OC(C)[C@]2(O)CO)OC(CO)C(O)C1O (stereo partly shown) | -3.92%

Reference: paper PMC13083723 (Patterns, 2026)
